# PMC3201922
# Chains of the proteins cited; added tags and fusions are not shown. Lines headed by an entry give the natural chain unless they say otherwise; changes in a name come on top. Residues count along the entry.
# UniProt Q92466: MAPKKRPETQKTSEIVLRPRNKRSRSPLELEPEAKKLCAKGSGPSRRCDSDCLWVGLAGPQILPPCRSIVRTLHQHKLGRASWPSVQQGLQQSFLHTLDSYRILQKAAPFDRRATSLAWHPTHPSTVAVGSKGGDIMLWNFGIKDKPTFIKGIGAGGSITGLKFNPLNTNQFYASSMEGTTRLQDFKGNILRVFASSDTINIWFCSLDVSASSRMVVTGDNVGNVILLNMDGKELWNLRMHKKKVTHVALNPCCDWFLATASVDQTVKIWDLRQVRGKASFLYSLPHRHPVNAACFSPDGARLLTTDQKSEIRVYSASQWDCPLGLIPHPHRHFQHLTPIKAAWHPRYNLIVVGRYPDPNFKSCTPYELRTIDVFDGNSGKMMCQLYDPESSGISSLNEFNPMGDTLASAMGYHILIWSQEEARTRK
# DDB2_(79–427)-FLAG: residues 79-427 of Q92466
# UniProt Q16531: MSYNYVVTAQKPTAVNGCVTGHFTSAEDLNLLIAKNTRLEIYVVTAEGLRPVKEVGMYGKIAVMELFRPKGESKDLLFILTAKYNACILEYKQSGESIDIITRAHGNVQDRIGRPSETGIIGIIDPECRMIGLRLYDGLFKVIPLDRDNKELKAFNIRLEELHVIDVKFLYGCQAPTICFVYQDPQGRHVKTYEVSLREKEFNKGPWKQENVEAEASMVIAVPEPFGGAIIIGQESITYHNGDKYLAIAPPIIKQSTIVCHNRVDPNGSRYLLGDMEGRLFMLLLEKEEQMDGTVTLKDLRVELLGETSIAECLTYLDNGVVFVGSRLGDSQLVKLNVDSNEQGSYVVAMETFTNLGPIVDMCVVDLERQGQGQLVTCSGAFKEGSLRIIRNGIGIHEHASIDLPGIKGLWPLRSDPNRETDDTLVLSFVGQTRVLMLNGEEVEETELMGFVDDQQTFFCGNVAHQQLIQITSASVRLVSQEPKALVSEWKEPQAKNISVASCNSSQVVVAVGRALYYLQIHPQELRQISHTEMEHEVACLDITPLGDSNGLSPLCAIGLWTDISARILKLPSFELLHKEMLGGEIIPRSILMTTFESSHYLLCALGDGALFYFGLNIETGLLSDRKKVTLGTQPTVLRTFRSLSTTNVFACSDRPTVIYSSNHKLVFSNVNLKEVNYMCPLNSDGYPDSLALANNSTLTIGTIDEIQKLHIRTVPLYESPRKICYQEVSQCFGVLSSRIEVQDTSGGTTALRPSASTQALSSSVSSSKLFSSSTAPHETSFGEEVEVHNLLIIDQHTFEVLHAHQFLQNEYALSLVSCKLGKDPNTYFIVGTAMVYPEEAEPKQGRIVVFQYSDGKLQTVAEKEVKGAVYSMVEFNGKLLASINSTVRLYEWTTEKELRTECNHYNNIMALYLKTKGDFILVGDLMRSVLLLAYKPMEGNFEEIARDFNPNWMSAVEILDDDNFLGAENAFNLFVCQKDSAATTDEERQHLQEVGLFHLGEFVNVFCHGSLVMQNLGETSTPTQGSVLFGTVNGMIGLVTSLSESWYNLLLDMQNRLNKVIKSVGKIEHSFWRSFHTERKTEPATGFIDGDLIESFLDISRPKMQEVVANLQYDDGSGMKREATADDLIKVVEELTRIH
# Results are given in words; binding and its absence hold for the method and conditions named. For some assays here: Binding seen in cells or lysates may run through a third protein. Some binding calls cover weakened binding; strength is not graded here. For some assays here: Tags and fused reporters may be left off the sequences shown.
# Tests used:
# [1] = molecular target: DDB2_(1–427)-FLAG (human) (UniProt Q92466); experiment: co-IP; lysates of doubly transfected HEK293T cells probed with anti-FLAG affinity beads; immunoprecipitates analysed by Western blotting with anti-FLAG and anti-GFP antibodies
# [2] = molecular target: DDB2_(79–427)-FLAG (human) (UniProt Q92466); experiment: as above
# [3] = molecular target: T1, GST-XPC_(607–766) (human) (UniProt Q01831); experiment: pull-down; GST-XPC polypeptides (120 pmol) held on glutathione-Sepharose beads, incubated with UV-DDB (120 pmol) for 20 min at room temperature in 500 µl washing buffer (50 mM Tris-HCl pH 8.0, 1 mM EDTA, 1 mM dithiothreitol, 10% glycerol, 0.5% Nonidet P-40, 150 mM NaCl, bovine serum albumin); DDB2 detected with antibodies against His6; in some samples UV-DDB was pre-incubated with undamaged or damaged 15-mer DNA duplex; both purified
# T1 sequence: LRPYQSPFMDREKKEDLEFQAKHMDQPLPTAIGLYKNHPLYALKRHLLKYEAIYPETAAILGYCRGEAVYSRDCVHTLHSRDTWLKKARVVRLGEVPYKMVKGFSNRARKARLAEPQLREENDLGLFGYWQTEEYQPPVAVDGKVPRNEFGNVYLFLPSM
# [4] = molecular target: T2, GST-XPC_(428–633) (human) (UniProt Q01831); experiment: as above
# T2 sequence: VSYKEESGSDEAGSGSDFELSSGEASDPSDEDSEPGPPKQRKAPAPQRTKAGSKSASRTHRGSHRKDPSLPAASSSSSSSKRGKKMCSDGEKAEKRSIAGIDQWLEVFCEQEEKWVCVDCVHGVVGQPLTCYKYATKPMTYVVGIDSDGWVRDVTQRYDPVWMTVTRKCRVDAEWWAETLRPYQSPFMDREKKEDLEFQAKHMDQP
# [5] = molecular target: T3, GST-XPC_(607–741) (human) (UniProt Q01831); experiment: as above
# T3 sequence: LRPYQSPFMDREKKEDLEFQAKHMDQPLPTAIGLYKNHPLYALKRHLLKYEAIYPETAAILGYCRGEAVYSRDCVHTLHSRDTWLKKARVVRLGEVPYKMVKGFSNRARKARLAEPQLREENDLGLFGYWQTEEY
# [6] = molecular target: T4, GST-XPC_(679–832) (human) (UniProt Q01831); experiment: as above
# T4 sequence: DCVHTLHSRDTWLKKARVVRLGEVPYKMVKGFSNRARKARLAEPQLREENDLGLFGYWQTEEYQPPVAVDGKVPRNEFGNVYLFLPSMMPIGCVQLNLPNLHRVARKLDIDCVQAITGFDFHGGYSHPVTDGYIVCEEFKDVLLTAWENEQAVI
Substance,binding [1],binding [2],binding [3],binding [4],binding [5],binding [6]
DDB1 (from UniProt Q16531 1-1140),binds,no binding,,,,
UV-DDB-His6 (from UniProt Q16531 1-1140; Q92466 1-427) (complex),,,binds,binds,binds,no binding (tested: 120 pmol UV-DDB in 500 µl)
XPC-GFP (from UniProt Q01831 1-940),binds,binds,,,,
